Reference: PMC4336329 (PLoS ONE, 2015)
About 14,000 (4.5%) of roughly 310,000 compounds showed an effect of 50% or more. The effect is printed as a negative number. This is one part of the list.

Molecular target: human ether-à-go-go-related gene (hERG) potassium channel (human, UniProt Q12809)
Assay: primary screen, population patch clamp on CHO cells stably expressing hERG
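Also: peak tail current of the secondary pulse compared with the same well before compound.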

Chain of human ether-à-go-go-related gene (hERG) potassium channel (Q12809 whole entry, looked up): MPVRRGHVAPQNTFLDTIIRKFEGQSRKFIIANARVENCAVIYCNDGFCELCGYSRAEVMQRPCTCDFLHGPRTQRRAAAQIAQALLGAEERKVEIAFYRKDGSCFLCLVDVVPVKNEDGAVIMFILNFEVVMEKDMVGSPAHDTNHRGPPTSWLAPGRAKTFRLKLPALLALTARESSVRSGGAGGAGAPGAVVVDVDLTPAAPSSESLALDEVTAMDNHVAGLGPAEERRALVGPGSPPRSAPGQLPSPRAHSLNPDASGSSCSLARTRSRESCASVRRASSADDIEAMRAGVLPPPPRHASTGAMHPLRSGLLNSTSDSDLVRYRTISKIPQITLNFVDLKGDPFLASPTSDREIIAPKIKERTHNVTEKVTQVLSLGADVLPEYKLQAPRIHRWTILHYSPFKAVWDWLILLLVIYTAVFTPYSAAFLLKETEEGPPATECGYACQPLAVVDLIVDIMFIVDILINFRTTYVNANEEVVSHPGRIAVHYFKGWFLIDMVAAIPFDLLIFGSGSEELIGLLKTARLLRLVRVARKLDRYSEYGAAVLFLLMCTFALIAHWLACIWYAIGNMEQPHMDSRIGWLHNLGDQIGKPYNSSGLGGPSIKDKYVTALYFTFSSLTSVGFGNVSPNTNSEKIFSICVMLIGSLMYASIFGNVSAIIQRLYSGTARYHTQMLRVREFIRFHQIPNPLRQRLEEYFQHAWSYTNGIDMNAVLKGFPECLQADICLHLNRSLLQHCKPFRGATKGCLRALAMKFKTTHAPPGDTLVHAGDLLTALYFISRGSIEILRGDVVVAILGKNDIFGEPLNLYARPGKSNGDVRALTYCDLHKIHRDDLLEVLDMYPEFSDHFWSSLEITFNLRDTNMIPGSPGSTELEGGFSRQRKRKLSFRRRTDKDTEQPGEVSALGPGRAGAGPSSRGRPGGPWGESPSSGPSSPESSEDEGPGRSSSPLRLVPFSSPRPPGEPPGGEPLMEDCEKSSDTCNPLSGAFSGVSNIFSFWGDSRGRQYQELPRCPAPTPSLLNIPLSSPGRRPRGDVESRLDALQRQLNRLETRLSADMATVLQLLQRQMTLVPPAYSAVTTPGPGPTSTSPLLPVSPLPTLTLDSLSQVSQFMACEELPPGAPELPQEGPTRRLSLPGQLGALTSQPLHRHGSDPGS

Structure (SMILES)	hERG current change (%, negative = inhibition) at 10uM [%]
Cc1ccc(C)c(OCC(=O)Nc2ccc(S(=O)(=O)Nc3onc(C)c3C)cc2)c1	13.2
COCCn1c(SCC(=O)N2CC(C)OC(C)C2)nc2c([nH]c3ccccc32)c1=O (centres unmarked)	-7.07
CC(NS(=O)(=O)c1ccc(Cl)cc1)C(=O)OCC(=O)c1ccc[nH]1 (centres unmarked)	-13.9
Cc1nn(C)c(C)c1/C=N/NC(=O)c1csc2ccccc12	-2.45
O=[N+]([O-])c1ccc2n[nH]nc2c1	11.4
O=C(NNC(=O)C1CC(c2cccs2)=NO1)NC1CCCCC1 (centres unmarked)	21.5
O=C(CN1C(=O)c2ccccc2S1(=O)=O)NCc1ccccn1	2.89
C=CCNC(=O)Nc1ccc2nc(C)sc2c1	28.2
COc1ccc(-c2csc(N(CCc3ccccc3)C(=O)COc3ccccc3)n2)cc1	17.9
COc1ccc(/C=C/C(=O)NC(=S)Nc2ccc(S(=O)(=O)Nc3nccnc3OC)cc2)cc1	-7.32
O=C(Nc1ccc(F)cc1)C1COc2ccccc2O1 (centres unmarked)	9.07
COC(C(=O)NNS(=O)(=O)c1ccc([N+](=O)[O-])cc1)c1ccccc1 (centres unmarked)	5.31
O=C(CCn1c(=O)[nH]c2ccccc2c1=O)N1CC=C(c2ccccc2)CC1	2.8
Cc1cccc(NC(=O)c2ccc3c(c2)C(=O)N(Cc2cccnc2)C3=O)c1C	2.77
Cn1nnnc1SCC(=O)N1CCCCC1	-3.29
CCCCCc1cc(O)c2c(C)cc(=O)oc2c1	9.67
COc1ccc(C(=O)CSc2ncn[nH]2)cc1OC	-1.18
O=C(c1cc([N+](=O)[O-])ccc1N1CCOCC1)N1CCCCC1	-0.41
Cc1nc(Cl)cc(N/N=C/c2ccccc2)n1	14.3
O=C(NCc1ccccn1)c1ccc(Cl)c(S(=O)(=O)Nc2ccccc2C(=O)NCc2ccccn2)c1	5.07
CSc1nnc(-c2ccccc2Cl)o1	10.6
Cc1c(C(=O)N(C)Cc2cccc(F)c2)oc2c(Cl)cccc12	9.18

Structure (SMILES)	hERG current change (%, negative = inhibition) at 10uM [%]
Cl.Oc1cccc(Nc2nc(NCC3CCCO3)c3ccccc3n2)c1 (centres unmarked)	-61.4
Cc1c(NC(=O)C2CCCNC2=O)c(=O)n(-c2ccccc2)n1C (centres unmarked)	4.41
CCOC(=O)c1c(C)[nH]c(C(=O)COC(=O)CNC(=O)c2ccc(Br)cc2)c1C	1.36
Cn1c(=O)c2c(n(C)c1=O)=NC1(CCCCC1)N=2	6.48
CCOc1ccc(CNC(=O)C2CCN(S(=O)(=O)N3CCCC3)CC2)cc1OC	10.6
Fc1cccc(Cc2noc(CN3CCC(c4ccncc4)CC3)n2)c1	-21.4
COc1cccc(CNS(=O)(=O)c2cc(Br)cc3c2N(C(C)=O)C(C)C3)c1 (centres unmarked)	-27.3
COc1ccccc1C(=O)NC1CCCCCCC1	5.2
O=C(c1cnccn1)N(Cc1ccco1)C1(C(=O)NC2CCCC2)CCCCC1	1.3
COc1ccc(CC2NCCC3=CC(=O)CCC32)cc1O (centres unmarked)	12.3
CCOc1ccc(-n2c(=O)[nH]cc(C(=O)N3CCCc4ccccc43)c2=O)cc1	-9.75
CCCNC(=O)N1C2=NC(C(=O)OC)=C(C(=O)OC)[C@@H]3N(Cc4ccccc4)c4ccccc4[C@]23C[C@H]1CO	-9.75
Cc1ccsc1/C=N/NC(=O)CNC(=O)c1ccco1	18.6
Cc1cc(C)c(S(=O)(=O)Nc2ccnc(-c3cccnc3)n2)c(C)c1	13.4
O=C(NCC1CCCN1S(=O)(=O)c1cccs1)C(=O)Nc1ccc(F)cc1 (centres unmarked)	-47.5
Cc1nc2ccc(C(=O)N/N=C/c3ccccc3O)cc2[nH]1	9.25
CC(=O)Oc1c(Br)cc(N(C(C)=O)S(=O)(=O)c2ccccc2)c2ccccc12	15.3
COCCNC(=O)C(c1ccc(C)o1)N(Cc1cccs1)C(=O)c1snc(C(N)=O)c1N (centres unmarked)	-10.6
Cc1ccc(S(=O)(=O)N2CCCCC2)cc1NC(=O)CSc1nncn1-c1ccccc1	-35.2
CC(=O)Nc1ccc(S(=O)(=O)Nc2ccccc2C(=O)N2CCCC2)cc1	17
CC(C)(C)C(=O)CN1CCN(C2c3ccccc3-c3ccccc32)CC1	-6.25
CCn1c(SCC(=O)NC2CCCC2)nnc1-c1ccccn1	13.4

Structure (SMILES)	hERG current change (%, negative = inhibition) at 10uM [%]
Cc1ccc(C)c(NC(=O)c2cc(C)nc3ccccc23)c1	-12
COc1ccc(N=C2S/C(=C\c3cc(C)n(C)c3C)C(=O)N2C)cc1	9.87
Cc1noc(C)c1CSCC(=O)N(C)CC(=O)Nc1ccc(F)cc1	-3.23
O=C(NNc1nc2c(F)cccc2s1)c1ccc(F)cc1	21.1
O=S(=O)(c1ccc(S(=O)(=O)N(Cc2ccco2)Cc2ccccc2Cl)cc1)N1CCCC1	11.2
Cc1[nH]c2ccccc2c1C(=O)C(C)Sc1nnc(C2CC2)o1 (centres unmarked)	-3.91
O=C(C1CCCN(C2CC(=O)N(c3ccc(Cl)cc3)C2=O)C1)N1CCCC1 (centres unmarked)	12.2
COc1ccc(Cn2nc(C(=O)O)c3ccccc3c2=O)cc1F	-0.829
Cc1ccc(C)c(CN2C(=O)NC3(CCCCCC3)C2=O)c1	19.6
Cc1ccc(S(=O)(=O)NCc2ccc(C(=O)NCCc3ccc(S(N)(=O)=O)cc3)cc2)cc1	15
O=c1cc(CSc2ccc(Cl)cc2)nc(N2CCOCC2)[nH]1	7.86
CSCC[C@H](NC(=O)c1ccc2c(c1)OCO2)c1nnc2ccccn12	-2.8
Cc1cc(C)c2c(N)c(C(=O)Nc3ccc(C)c(C)c3)sc2n1	8.41
O=C1CC(N2CCC(n3c(=O)[nH]c4ccccc43)CC2)C(=O)N1Cc1ccccc1 (centres unmarked)	-21.4
O=C(NCCc1ccccc1F)[C@@H]1CSC2c3ccccc3C(=O)N21 (some centres unmarked)	-6.84
CCC(NC(=O)c1ccccc1NC(=O)c1ccccc1)C(=O)NNC(=O)c1cccnc1 (centres unmarked)	11
N#Cc1cnc2sc3ccccc3n2c1=N	-19.9
COc1ccc(OC)c(C2c3c(oc4ccccc4c3=O)C(=O)N2CCCN(C)C)c1 (centres unmarked)	11.9
O=C(COC(=O)CNS(=O)(=O)c1ccc(Br)cc1Cl)NCCc1ccccc1	-13.6
COC(=O)C(NC(C)=O)(Nc1nc2c(C)cc(C)cc2s1)C(F)(F)F (centres unmarked)	16.1
CCOCCCNC(=S)N1CCC(NC(=O)C2CCCCC2)CC1	-0.645
O=C(c1ccncc1)N1CCN(C(=O)c2cccs2)CC1	6.46

Structure (SMILES)	hERG current change (%, negative = inhibition) at 10uM [%]
O=C(CNS(=O)(=O)c1ccc2ccccc2c1)Nc1ccc(F)c(F)c1F	5.27
O=C(O)CN1C(=O)/C(=C\c2cn(-c3ccccc3)nc2-c2ccccc2)SC1=S	14.4
O=C(O)CSc1nnc(CNc2ccc(Cl)cc2)n1Cc1ccccc1	-15.6
C=C(C)C(=O)N1CC2(CC(c3cccc(NC(=O)CCCCC)c3)=NO2)C[C@H]1C(N)=O (some centres unmarked)	-2.39
CCO[C@H]1OC(C(=O)N2CCN(Cc3ccc4c(c3)OCO4)CC2)=C[C@@H](C2CCCCC2)[C@@H]1CCCO	-55.5
COc1ccc(-c2nc(CS(=O)(=O)CC(=O)NCCCc3ccccc3)c(C)o2)cc1	7.06
Cc1c(CC(=O)NCCCCCC(=O)O)c(=O)oc2cc3occ(-c4ccccc4)c3cc12	12
COc1ccc(CCNC(=O)[C@@H](NC(=O)c2ccccc2F)C(C)C)cc1OC	-9.87
Cc1ccc2c(nc3s/c(=C\c4ccc(-c5ccccc5C(=O)O)o4)c(=O)n32)c1C	18.8
COc1cc(/C=N/N2C(=O)c3ccccc3C2=O)ccc1O	2.22
Cc1ccccc1N1C(=O)c2cc(S(N)(=O)=O)c(Cl)cc2NC1C (centres unmarked)	11.7
Clc1ccccc1CO/N=C1\CCCc2nonc21	-3.54
Cc1nc2ccc(NC(=O)C3CCCCC3)cc2s1	-2.22
COc1ccccc1CN1CCC(CNS(=O)(=O)c2cc(-c3cc(C)no3)ccc2C)CC1	-61.3
CCCCOCCCN1CC(=O)N2[C@@H](Cc3c([nH]c4ccccc34)C2(C)C)C1=O	16.8
CN(Cc1cnccn1)C(=O)CC1C(=O)NCCN1Cc1cccc(F)c1 (centres unmarked)	6.51
Cn1cc([C@@H]2C[C@H]3CN(C4CCCC4)C(=O)[C@]34CCCN24)c(-c2ccccc2)n1	-18.5
CC12CCC3C(CC=C4CC(O)CCC43C)C1C/C(=C\c1ccccc1F)C2=O (centres unmarked)	-27.7
CC(=O)Nc1ccc(Oc2cnccn2)cc1	9
CCNS(=O)(=O)c1ccc(-c2ccc(-n3cnnn3)cc2)cc1	-21.1
